These results are taken from PubChem BioAssay AID1240 (Sanford-Burnham Center for Chemical Genomics, 2008).

Structures are written as SMILES. Out of some 50,000 compounds screened, about 800 (1.6%) showed an effect of 50% or more. The list shows a part of the results.

The assay addresses Bcl-2-like protein 10 (Homo sapiens) (UniProt Q9HD36). The assay can be described thus: TR3 peptide-Bcl-B binding displacers, biochemical primary FP assay, phenotype converters (AID 1240).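 Also: 0% = Bcl-B with tracer peptide and DMSO and 100% = tracer peptide lacking Bcl-B.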 Conditions: GST-Bcl-B / FITC-TR3 peptide fluorescence polarization; stronger effect = higher value; compound at 3.75 mg/L.
UniProt Q9HD36, sequence (Q9HD36 whole entry, looked up): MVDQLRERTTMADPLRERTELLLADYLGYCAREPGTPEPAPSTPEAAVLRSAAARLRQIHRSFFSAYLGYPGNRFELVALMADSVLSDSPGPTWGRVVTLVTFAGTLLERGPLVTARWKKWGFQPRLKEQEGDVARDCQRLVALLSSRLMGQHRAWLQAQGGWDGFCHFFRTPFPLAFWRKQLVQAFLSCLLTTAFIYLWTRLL
Take `Cc1ccccc1NC(=O)c1c(NC(=O)c2cccc(Cl)c2)sc2c1CCCC2`: the displacement came out at 0.4%.

`Cn1c(=O)c([N+](=O)[O-])c(N2CCN(C(=O)c3ccccc3)CC2)c2ccccc21`: the displacement came to 7.2%.

Regarding `O=C(O)c1ccc(-c2ccc(/C=C3\SC(=S)N(Cc4ccccc4)C3=O)o2)cc1`, the displacement is -31.9%.

As for `O=C(c1ccccc1Br)N(C1CCCCC1)C1CCCCC1`, the displacement came to 1.4%.

`O=C(Nc1ccccc1)Nc1nnc(SCCOc2ccccc2)s1`: the displacement was 9.8%.

Turning to `CCN1C(=O)c2cccc3c(NC(=O)c4ccc(S(=O)(=O)N5CCOCC5)cc4)ccc1c23`, the displacement was found to be 8.7%.

Regarding `CNC(=O)CN(c1ccc(OC)cc1OC)S(C)(=O)=O`, the displacement was found to be 17.7%.

For the compound `O=C(NCCO)C(=O)Nc1nc(C23CC4CC(CC(C4)C2)C3)cs1`, the displacement is -23.5%.

In the case of `CC1CCN(C2=NC(=O)/C(=C/c3cccc(O)c3)S2)CC1`, the displacement was -14.9%.

Take `COc1ccc(C2CC(C(F)(F)F)n3ncc(C(=O)N(C)Cc4ccccc4)c3N2)cc1OC` (configuration not stated): the displacement was found to be 3.7%.

On to `Cc1ccc(Cl)cc1NC(=O)Cc1ccccc1[N+](=O)[O-]`, for which the displacement worked out at 2.8%.

As to `Cn1c(/C=C2/C(=O)N(Cc3ccccc3)c3ccccc32)nc2ccccc2c1=O`, the displacement is -8.1%.

`O=C(Nc1ccc(Br)cc1)c1nc[nH]c1C(=O)O`: the displacement is -2.1%.

`COC(=O)C1=CNC=C(C(=O)OC)C1c1ccc(C(=O)OC)cc1`: the displacement was -6.4%.

For `COc1ccc(/C=C2/SC(N3CCOCC3)=NC2=O)cc1`, the displacement came out at 19.1%.

For `NC(=O)c1ccccc1N=Cc1ccc([N+](=O)[O-])o1`, the displacement is -6.5%.

In the case of `Cc1ccccc1/C=C1/NC(=S)NC1=O`, the displacement was -6.2%.

For the compound `NNC(=O)c1sc2cccc(Cl)c2c1Cl`, the displacement stood at 2%.

As to `Cc1c(OC(C)C(=O)O)ccc2c(-c3ccccc3)cc(=O)oc12` (configuration not stated), the displacement is 8.3%.

As for `COC(=O)c1ccc(COc2ccc3c(-c4ccccc4)cc(=O)oc3c2)cc1`, the displacement is 12.1%.

For `CS(=O)(=O)N1CCN(Cc2ccccc2Cl)CC1`, the displacement was determined as 11%.

For the compound `COc1ccc(N(CC(=O)Nc2ccc(I)cc2)S(C)(=O)=O)cc1`, the displacement is 13.1%.

With `CCOc1cccc(/C=N/NC(=O)c2cc(-c3cccc4ccccc34)n[nH]2)c1O`, the displacement is -17%.

On to `C=CCC(CC=C)(NC(=O)/C=C/c1cccc([N+](=O)[O-])c1)c1ccccc1`, for which the displacement is -6.2%.

Turning to `CCc1c(C)c2ccc(OCC(C)=O)c(C)c2oc1=O`, the displacement is -4.5%.

Consider `Cc1cc(C)c2sc(NC(=O)c3cccc(Cl)c3)nc2c1`, for which the displacement is 11.9%.

As for `S=c1[nH]c2ccccc2n1CCOc1ccccc1`, the displacement was -13.2%.

As to `O=C(c1ccc2c(c1)OCO2)N1CCN(Cc2ccccc2)CC1`, the displacement is 1.9%.

As to `COc1cccc(C(=O)NNC(=O)COc2ccc(C(C)(C)C)cc2)c1`, the displacement is -7.4%.

On to `C=CCn1c(-c2ccc(OCC)cc2)n[nH]c1=S`, for which the displacement is -3.8%.

For the compound `COc1cc(OC)c(OC)cc1CN1CCN(C2CCCC(C)C2)CC1` (configuration not stated), the displacement was determined as 2.7%.

For the compound `COc1ccc(NC(=O)c2ccccc2[N+](=O)[O-])cc1`, the displacement is 4.9%.

For `Cc1ccc2c(c1)C1C=CCC1C(c1ccc([N+](=O)[O-])cc1)N2` (configuration not stated), the displacement was 12.2%.

As to `CCOc1ccc(S(=O)(=O)n2cnc(C)c2)c2ccccc12`, the displacement is -1.2%.

On to `CC1=C(C(=O)OC(C)C)C(c2ccc(OCC(N)=O)cc2)NC(=S)N1` (configuration not stated), for which the displacement turned out to be 7.3%.

With `O=C(Cc1ccc(F)cc1)NCC1CCCO1` (configuration not stated), the displacement was determined as 14.3%.

Regarding `O=C(CN1C(=O)C2CC=C(Cl)CC2C1=O)N1CCCC1` (configuration not stated), the displacement was -4.6%.

On to `O=c1/c(=C/C=C/c2ccccc2Cl)sc2nc3ccccc3n12`, for which the displacement was 3.6%.

With `CCOc1cccc(-c2cc(C(=O)Nc3nnc(C)s3)c3ccccc3n2)c1`, the displacement was 135%.

On to `O=C(/C=C/c1ccc([N+](=O)[O-])o1)c1ccc(Br)cc1`, for which the displacement stood at 1%.

Regarding `COc1cc(NC(=O)c2ccc(C(C)(C)C)cc2)c(OC)cc1Cl`, the displacement was -13.5%.

Consider `Cc1ccc(C)c(COc2ccc3c4c(c(=O)oc3c2)CCC4)c1`, for which the displacement was 7%.

In the case of `CCOC(=O)c1c(C)oc2ccc(OCc3cccc(F)c3)cc12`, the displacement turned out to be 8.5%.

With `O=C(Nc1ccc(Cl)cc1)c1ccc(N2CCCCCC2)c([N+](=O)[O-])c1`, the displacement came out at 12.5%.

For `COc1cc2c(cc1NCc1ccc(OC)c(OC)c1OC)oc1ccccc12`, the displacement turned out to be 11.2%.

Regarding `O=[N+]([O-])c1ccc(-c2ccc(/C=N/Nc3nnc4c(n3)[nH]c3ccccc34)o2)cc1`, the displacement came out at 7.8%.

Consider `CC(C1CC1)N(C(=O)Nc1ccccc1Cl)c1ccccc1` (configuration not stated), for which the displacement was -4.5%.

For `NS(=O)(=O)c1ccc(NC(=O)c2ccc([N+](=O)[O-])o2)cc1`, the displacement was 15.9%.

For `CC(=O)Cc1oc2ccc(O)cc2c1[N+](=O)[O-]`, the displacement is 13.2%.

With `O=C(NCc1ccccc1)C1CCCCC1`, the displacement was -10.2%.

With `CCCCN(C)Cn1[nH]c(=O)ccc1=O`, the displacement stood at 1.2%.

Consider `COc1ccc(O)c(/C=N/n2cnnc2)c1`, for which the displacement turned out to be 15.1%.

Consider `O=C(CCc1ccccc1)NC1C2CC3CC(C2)CC1C3` (configuration not stated), for which the displacement was -11.5%.

On to `COCC(=O)N/N=C(\C)CC(=O)Nc1cc(C)ccc1OC`, for which the displacement is -37.2%.

With `COc1ccc(-c2nc3sc(-c4ccc(OC)cc4)nc3s2)cc1`, the displacement was found to be 0.3%.

On to `O=S(=O)(NCCNS(=O)(=O)c1ccccc1)c1ccccc1`, for which the displacement was -3%.

Take `CCC(C)NCC(O)Cn1c2ccc(Cl)cc2c2cc(Cl)ccc21` (configuration not stated): the displacement was found to be 13.4%.

As for `CC(=O)N(C)c1ccc(NC(=O)/C=C/c2ccccc2)cc1`, the displacement came to 16.1%.

Consider `C=CCN1C(=O)/C(=C\c2ccc(OCc3ccc(Cl)cc3)cc2)SC1=S`, for which the displacement came out at 4.4%.

For `COc1cc(/C=C2/SC(=S)N(c3ccccc3)C2=O)ccc1OC(=O)c1cccc(C)c1`, the displacement stood at 9.4%.

In the case of `Cc1cccc(OCc2n[nH]c(=S)n2-c2ccccc2)c1`, the displacement turned out to be 3.2%.

Turning to `COc1ccc(Br)cc1/C=C1\SC(N2CCCC2)=NC1=O`, the displacement was -10.6%.

Regarding `Nc1ccc2nc(SCC(=O)NCc3ccco3)sc2c1`, the displacement was 8.7%.

In the case of `O=C(CCC(=O)N/N=C/c1ccc(Cl)s1)N/N=C/c1ccc(Cl)s1`, the displacement was found to be 5.9%.

Take `Cc1ccc(O)c(NC(=O)c2cc3nc(-c4ccccc4)cc(C)n3n2)c1`: the displacement is -2.1%.

Consider `COc1ccc(/C=N/NC(=O)c2ccoc2C)c(OC)c1OC`, for which the displacement was -4.5%.

Turning to `COc1ccc(C2C3=C(CC(C)(C)CC3=O)Nc3ccccc3N2C(=O)CC(C)C)cc1` (configuration not stated), the displacement was -16.5%.

Regarding `Cc1cc(=O)oc2cc(OC(=O)C(c3ccccc3)c3ccccc3)ccc12`, the displacement turned out to be 4.1%.

For `Cc1ccc2nc(N3CCCCC3)nc(-c3ccccc3)c2c1`, the displacement was -0.8%.

With `Oc1ccccc1/C=N/Nc1ncnc2c1cnn2Cc1ccccc1`, the displacement was -5.7%.

With `COC(=O)c1ccc(C(=O)OC)c(NC(=O)COc2cc(C)ccc2C(C)C)c1`, the displacement was -1.3%.

In the case of `O=c1ccc(-c2nc3ccccc3[nH]2)n[nH]1`, the displacement is -0.5%.

As to `CC1=C(C(=O)OC(C)C)C(c2ccc(Br)s2)NC(=O)N1C` (configuration not stated), the displacement was -13.8%.

As to `COc1ccc(/C=C(\C#N)C(=O)NC(=O)Nc2cccc(Cl)c2)cc1`, the displacement came out at 1.1%.

As for `COC(=O)Cn1c(=N)n(Cc2ccccc2Cl)c2ccccc21`, the displacement was -3.9%.

`Cc1nnc(SCC(=O)Nc2c(C)n(C)n(-c3ccccc3)c2=O)s1`: the displacement was -6%.

With `CCC(=O)Oc1ccc2oc(=O)cc(C)c2c1`, the displacement was determined as 16.1%.

Regarding `CC(=O)Nc1ccccc1NC(=O)c1ccccc1Cl`, the displacement was -8.7%.

Take `N#Cc1c(SCC(=O)c2cccs2)nc2c(c1-c1ccncc1)CCCC2`: the displacement came out at 3.4%.

For `N/C(=N\OC(=O)c1ccccc1Br)c1cccnc1`, the displacement turned out to be 3.2%.

Consider `COc1ccc(/C=C/C(=O)C(C)(C)O)cc1`, for which the displacement is 14.2%.

With `COC(=O)C1=C(C)NC2=C(C(=O)CC(c3ccc(OC)c(OC)c3)C2)C1c1ccc2c(c1)OCO2` (configuration not stated), the displacement came to 9.1%.

For `Cc1c(OCc2ccccc2F)ccc2c3c(c(=O)oc12)CCC3`, the displacement was -5%.

For `Cc1ccc(NC(=O)CCN2C(=O)c3cccc4cccc(c34)C2=O)cc1`, the displacement is 11.4%.

`COc1ccc(/C=C/C(=O)OCC(=O)c2cccc([N+](=O)[O-])c2)cc1S(=O)(=O)N1CCCCC1`: the displacement is -4.9%.

For the compound `COc1cc(C2C3=C(CC(C)(C)CC3=O)OC3=C2C(=O)CC(C)(C)C3)ccc1Oc1nc2c(c(=O)n(C)c(=O)n2C)n1C`, the displacement turned out to be 1.4%.

Regarding `OC(CN1CCOCC1)c1ccc(Br)cc1` (configuration not stated), the displacement was -4.7%.

For `CCOc1ccc(C(NC(=O)c2ccccc2OC)c2ccc(OC)cc2)cc1` (configuration not stated), the displacement is -5%.

On to `COc1ccc(C2CC(=O)C3=C(C2)Nc2ccccc2NC3c2cc(Br)ccc2OC)cc1OC` (configuration not stated), for which the displacement is 2.5%.

Consider `CC(C)(C)c1cc(Cc2ccccc2)no1`, for which the displacement was found to be 4.5%.

Turning to `COc1cc(/C=c2/sc3nc4ccccc4n3c2=O)cc(Br)c1OCc1ccccc1`, the displacement came out at 1.8%.

For `O=c1c2c(nc3cc(-c4cccc(F)c4)[nH]n13)CCC2`, the displacement was determined as 5.3%.

For the compound `O=[N+]([O-])c1ccc(Cl)c(-n2ncnc2-c2ccc(Br)cc2)c1`, the displacement was -2.6%.

`CC(=O)N(Cc1ccc2c(c1)OCO2)C1CC(=O)N(c2cccc(Cl)c2)C1=O` (configuration not stated): the displacement was determined as 16%.

As to `COc1ccc(/C=C/C(=O)NC(=S)Nc2c(C)cc(C)cc2[N+](=O)[O-])cc1OC`, the displacement is -8%.

Turning to `O=C(O)/C=C/C(=O)NNC(=O)c1ccc(O)cc1`, the displacement turned out to be 6.5%.

As for `O=C(CN1C(=O)/C(=C/c2ccccc2)SC1=S)Nc1nccs1`, the displacement was 8.7%.

`COc1ccc(OCCCCn2ccnc2)cc1`: the displacement was 1.6%.

As to `NC(=O)c1cc2nc(-c3cccs3)cc(C(F)(F)F)n2n1`, the displacement came to 5.6%.

Regarding `O=C(O)CCCN1C(=O)/C(=C/c2c(F)cccc2Cl)SC1=S`, the displacement was determined as 12.4%.

For `O=C(Nc1ccc(Br)cc1)C1C2C3CCC(C3)C12` (configuration not stated), the displacement was -1.2%.

`CCOC(=O)CSc1cc(C)nc2ccccc12`: the displacement worked out at 2%.

Turning to `COc1ccc(C(=O)Nc2nc(-c3ccccc3)c(C)s2)cc1OC`, the displacement is -2.7%.

With `COc1ccc(/C=N/OCC(=O)N=Nc2c(O)n(CN(C)C)c3ccc(Br)cc23)cc1`, the displacement is -0.9%.

As to `COc1ccc(C(=O)O/N=C(\N)c2ccc(OC)c(OC)c2)cc1OC`, the displacement is -7%.

As to `Cc1ccc(C#N)c(SCC(=O)O)n1`, the displacement is -1.7%.

`O=[N+]([O-])c1cnc(Nc2ccc3ccccc3c2)nc1`: the displacement is 27.5%.

Take `O=C(Nc1ccc2nc(SCc3ccccc3)sc2c1)c1ccccc1`: the displacement was 9.5%.

For `COc1ccc(NC2=NC3(CCCCC3)N=C(N)N2)cc1`, the displacement was -17.6%.

Regarding `CSc1ccc(S(=O)(=O)N(CC(=O)N2CCOCC2)c2ccc(C)cc2)cc1`, the displacement was -8.3%.

`CC(C)(O)C#CC(O)c1ccccc1F` (configuration not stated): the displacement is -5.9%.

As to `O=C(Nc1ccccc1)c1cc(S(=O)(=O)N2CCCCC2)ccc1Cl`, the displacement is 5.3%.
